Results reported in paper PMC12136788.
The other results are listed elsewhere or left out.

T1: UNK ZnF1-6 (called full-length) (human, UniProt Q9C0B0 30-357)
T1 sequence: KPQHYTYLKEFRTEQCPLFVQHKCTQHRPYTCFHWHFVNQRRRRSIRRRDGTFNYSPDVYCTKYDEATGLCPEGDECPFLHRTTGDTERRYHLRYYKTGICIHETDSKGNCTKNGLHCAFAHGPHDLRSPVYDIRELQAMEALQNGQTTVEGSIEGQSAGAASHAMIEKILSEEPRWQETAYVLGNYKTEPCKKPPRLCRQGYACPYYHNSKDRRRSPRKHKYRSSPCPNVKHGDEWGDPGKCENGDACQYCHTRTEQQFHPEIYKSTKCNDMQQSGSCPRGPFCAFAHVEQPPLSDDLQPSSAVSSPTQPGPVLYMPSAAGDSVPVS

B1: chrX:71101288:71101389:+|CDS|ENSG00000184481|unk|total|mutant (ssRNA)
RNA: GGGAGUUCUACAGUCCGACGAUCGGAGGCCCUGCUCACCUCUGAUACGCCACCACCCCCUGCUGACGUCCUCAUGACCCAGGCCGAUCCCAUUCUGUCCCAGGCUCCGACUCUUCUGUUGCUGGGGGGGCUUCCUUCCUCCAGCAACAGAGGAUUGAGCAUCA
B2: chr3:45082276:45085637:-|three_prime_utr|ENSG00000163814|control|control|control (ssRNA)
RNA: GGGAGUUCUACAGUCCGACGAUCAUUGAAAAUGAUGAAUUCCAAUCUGGAUACAGUCAUGACAGCUCAUGUGCUCCUCAACUUAGGCUGUGCGGUUAGCCAGCCUGUAAUGAGAGGAGAGAGGCCUGAGUCACCUAGCAUAGGCAACAGAGGAUUGAGCAUCA
B3: chr13:95044265:95044438:-|CDS|ENSG00000125257|control|control|control (ssRNA)
RNA: GGGAGUUCUACAGUCCGACGAUCACCAUUGAAGAUCUUCCUGGUAAAAUGGAUACUGAAUUAGCAGAAUCAGGAUCCAAUUUUAGUGUUGGACAAAGACAACUGGUGUGCCUUGCCAGGGCAAUUCUCAGGAAAAAUCAGAUACAACAGAGGAUUGAGCAUCA
B4: chr10:94132299:94132400:+|CDS|ENSG00000138193|unk|total|mutant (ssRNA)
RNA: GGGAGUUCUACAGUCCGACGAUCUGAGUAUCGCGCCACCCUCCAAAGGACUUCAAUAUCGCAGUACAUCACCGGUUCUCUCCCCGAAGCAACCACGUCUUUGGGAGCAAGAAGUGGCCUUCUCAGUACUUUUGGAGGAUCCACCAACAGAGGAUUGAGCAUCA
B5: chr4:75597091:75597192:-|CDS|ENSG00000138769|unk|total|mutant (ssRNA)
RNA: GGGAGUUCUACAGUCCGACGAUCUAUAAACUAUUUAAAAUAAAAGGCUCAAAAAUUGAUGGAGAAAAAGCUGAAAAAGGCAACCGAGCUUCAAAUGCCAGCUGUCUCCAUGACAGCCGGACAAGCCACAACAAAACCGUGCCUCAACAGAGGAUUGAGCAUCA
B6: ENSG00000107863:be:win_5301|CDS|ENSG00000107863|bound_else_gene|NA|bound_elsewhere_windowed (ssRNA)
RNA: GGGAGUUCUACAGUCCGACGAUCUCGGUUAAAACUGAGACCCAGAGCCCCUGCGGAUGACAUGUUUGGAGUAGGGAAUCACAAAGUGAAUGCCGAGACUGCUAAAAGGAAAAGCAUCCGGCGCAGACAUACACUAGGAGGGCACAACAGAGGAUUGAGCAUCA

What follows are binders tested against T1, UNK ZnF1-6 (called full-length) (assay: nsRBNS (natural sequence RNA bind-n-seq); RBNS binding buffer (assumed for nsRBNS): 25 mM Tris pH 7.5, 150 mM KCl, 3 mM MgCl2, 0.01% Triton X-100, 500 ug/ml BSA, 20 U/ml SUPERase-In, 4 C; UNK is unkempt and MSI1 is Musashi-1; names of the RNAs are library labels; protein concentration not given here; high values mean tight binding).
For B1, the binding signal was 0.679 enrichment R. In the case of B2, the binding signal is reported as 0.532 enrichment R. In the case of B3, the binding signal is reported as 0.55 enrichment R. Binder B4 has a binding signal of 0.531 enrichment R. B5 showed a binding signal of 0.872 enrichment R. Work on B6 yielded a binding signal of 0.664 enrichment R.
